According to the RNAGym collection of RNA variant scans (doi:10.1093/nar/gkz1192):
The source gives no read counts; variants with many changes may rest on few reads.

B1: CPEB3 Ribozyme (parent)
chain: UAACAGGGGGCCACAGCAGAAGCGUUCACGUCGCAGCCCCUGUCAGAUUCUGGUGAAUCUGCGAAUUCUGCUGUAUAUCUC

Variants of: B1
Experiment: self-cleavage, relative activity (ratio to wild type); higher = more cleavage; in vitro, sequencing
Outline: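 Relative activity was defined as the cleaved/total read fraction for a variant divided by the same fraction for the unmutated ribozyme. CPEB3 self-cleaving ribozyme libraries were made by rounds of error-prone PCR, barcoded, and transcribed in vitro with T7 RNA polymerase for 5 hours at 37°C, and cleavage ran through transcription plus a 15 min DNase I step before EDTA. Illumina sequencing of template-switched reverse transcripts gave the reads, and DNA sequencing mapped the barcodes. Averages come from three batches, using variants with at least 5 reads.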

Variant | self-cleavage
UAACAGGGGGCCACAGCAGAAGCGUUCACGUCGCGGCCCCUUUCAGAUUCUGGUGAAUCUGCGAAUUCUGCUGUAUAUCCC [A35G G42U U80C] | 0.39
UAACAGGGGGCCACAGCAGAAGCGUUCACGUCGCGACCCCUGUCAGAUUCUGGUGAAUCUGCGAAUUCUGCUGUAUAUCAC [A35G G36A U80A] | 1.01
UAACAGGGGGCCACAGCAGAAGCGUUCACGUCGCGGCCCCUGUCAGAUUCUGGUGAAUCUGCGACUUCCGCUGUAUAUCUC [A35G A65C U69C] | 0.62
UAACAGGGGGCCACAGCAGAAGCGUUCACGUCGCGGCCCCUGUCAGAUUCUGGUGAAUCUGCGUAAUCUGCCGUAUACCUC [A35G A64U U66A U72C U78C] | 0.59
UAACAGGGGGCCACAGCAGAAGCGUUCACGUCGCGGCCCCCGUCAGAUUCUGGUGGAUCUGCGAAUUCUGCUGUAUGUCUC [A35G U41C A56G A77G] | 1.27
UAACAGGGGGCCACAGCAGAAGCGUUCACGUCGCGGCCCCUAUCAGAUUCUGGUGAAUCAGCGAAUUCUGCCGUAUAUCUC [A35G G42A U60A U72C] | 0.18
UAACAGGGGGCCACAGCAGAAGCGUUCACGUCGCGGCCCCUGUCAGAUUCUGGUGAAUCUGGGGAUUCUGCUGUAUAUCCC [A35G C62G A64G U80C] | 0.58
UAACAGGGGGCCACAGCAGAAGCGUUCACGUCGCGGCCCCUGUCAGAUUCUGGUGAAUCUGCAAACUCUGCUGUAUAUCUC [A35G G63A U66C] | 1.25
UAACAGGGGGCCACAGCAGAAGCGUUCACGUCGCGGCCCCCGUCAGAUUCUGGUGGAUCUGCGAAUUCUGCCGUAUAUUUC [A35G U41C A56G U72C C79U] | 1.3
UAACAGGGGGCCACAGCAGAAGCGUUCACGUCGCGGCCCUUGACAGAUCCUGGUGGAUCUGAGAAUUCUGCUGUAUACCUC [A35G C40U U43A U49C A56G C62A U78C] | 0.12
UAACAGGGGGCCACAGCAGAAGCGUUCACGUCGCGGCCCCUGUCAGAUUCUGGUGAAUCUGCGUAUUCUGCUGUAUAUCCC [A35G A64U U80C] | 1.14
UAACAGGGGGCCACAGCAGAAGCGUUCACGUCGCGCCCCCUGUCAGAUUCUGGUGAAUCUGUGAAUUCUGCUGUAUAUCUC [A35G G36C C62U] | 0.07
UAACAGGGGGCCACAGCAGAAGCGUUCACGUCGCGGCCCUUGUCUGAUUCUGGUGGAUCUGCGAAUUCUGAUGUAUAUCUC [A35G C40U A45U A56G C71A] | 0.34
UAACAGGGGGCCACAGCAGAAGCGUUCACGUCGCGGCCCCCGUCGGGUUCUGGCGAAUCUACGAAUUCUGCUGUAUAUCUC [A35G U41C A45G A47G U54C G61A] | 1.07
UAACAGGGGGCCACAGCAGAAGCGUUCACGUCGCGGCCACUGUCAGAUUCUGGUGAAUCUGCGAAUUCUGCUGAGUAUCUC [A35G C39A U74A A75G] | 0.72
UAACAGGGGGCCACAGCAGAAGCGUUCACGUCGCGGCACCUGUCAGAUCCUGGUGAAUCUGCGAAUUCCGACGUAUAUCUC [A35G C38A U49C U69C C71A U72C] | 0.1
UAACAGGGGGCCACAGCAGAAGCGUUCACGUCGCGGCCUCUGUCAGAUUCUGGUGAAUCUGCGAAAUCUGCCGUAUAUCCC [A35G C39U U66A U72C U80C] | 1.24

Variant | self-cleavage
UAACAGGGGGCCACAGCAGAAGCGUUCACGUCGCGGCCACUGUCAGGUUCUGGUGAAUCUGCGAAUUCUGCUAUAUAUCUC [A35G C39A A47G G73A] | 1.02
UAACAGGGGGCCACAGCAGAAGCGUUCACGUCGCGGCCCCUGUCAGAUUCUGGUGAAUCUGCGGAUUCUGCUGUACAUCUC [A35G A64G U76C] | 1.27
UAACAGGGGGCCACAGCAGAAGCGUUCACGUCGCGGACCCUGUCAGAUUCUGGAGGAUCUGCGAAUUCUGCUGUAUCUCUC [A35G C37A U54A A56G A77C] | 0.3
UAACAGGGGGCCACAGCAGAAGCGUUCACGUCGCGGCCCCCGUCAGAUUCUGGUGGAUCUGCGAAUUCUGCCGUAUAUCUC [A35G U41C A56G U72C] | 1.42
UAACAGGGGGCCACAGCAGAAGCGUUCACGUCGCGGACCCUGUCAGAUCCUGGUGAAUCUGCGAAUUCUGCUGUAUAUCUC [A35G C37A U49C] | 0.34
UAACAGGGGGCCACAGCAGAAGCGUUCACGUCGCGGCUCCUGUCAGAUUCAGGUGAAUCUGCGAAUUCUGCUGUAUAUCUC [A35G C38U U51A] | 1.3
UAACAGGGGGCCACAGCAGAAGCGUUCACGUCGCGGCUCCUGUCAGACUCUGGUGGAUCAGCGAAUUCUGCUGUAUACCUC [A35G C38U U48C A56G U60A U78C] | 0.33
UAACAGGGGGCCACAGCAGAAGCGUUCACGUCGCGGCCCCAGUCAGAUUCUGGUGAAUCUGCGAAUUCUGCCGUAUAUCUC [A35G U41A U72C] | 0.38
UAACAGGGGGCCACAGCAGAAGCGUUCACGUCGCGGCCCAUGCCAGAUUCCGGUGAAUCUGCGAACUCUGCUGUAUAUCUC [A35G C40A U43C U51C U66C] | 0.1
UAACAGGGGGCCACAGCAGAAGCGUUCACGUCGCGGCCCCUGUCAGAUUCUGGUGAAUCUGCGGAUUCUGCUGAAUAUCUC [A35G A64G U74A] | 1.29
UAACAGGGGGCCACAGCAGAAGCGUUCACGUCGCGGCCCCUGUCAGAUUCUGGUGAAUCUGCGUAUCCUGCUGUAUAUCUC [A35G A64U U67C] | 0.56
UAACAGGGGGCCACAGCAGAAGCGUUCACGUCGCGGCCCCUGUCAGAUUCUGGUGAAUCUGCUAAAUCUGCUGUAUAUCUC [A35G G63U U66A] | 1.23
UAACAGGGGGCCACAGCAGAAGCGUUCACGUCGCGGCCCCCGUCAGGUUCUGGCGAAUCUGCGAAUUCUGCUGUAUAUCUC [A35G U41C A47G U54C] | 1.26
UAACAGGGGGCCACAGCAGAAGCGUUCACGUCGCGGCCCCAGUCAUAUUCUGGUGAAUCUGCGAAUUCUGCUGUAUAUCUC [A35G U41A G46U] | 0.12
UAACAGGGGGCCACAGCAGAAGCGUUCACGUCGCGGCCCCUGUCAGAUUCUGGUGAAUCUGCGAAUUCUGCUGUGUGUCUC [A35G A75G A77G] | 1.41
UAACAGGGGGCCACAGCAGAAGCGUUCACGUCGCGGCCCCUGUCAGAUUCUGAUGAAUCUGCGGAUUCUGCUGCGUAUCUC [A35G G53A A64G U74C A75G] | 1.32
UAACAGGGGGCCACAGCAGAAGCGUUCACGUCGCGGCCUCUGUCAGAUUCUGGUGGAUCUGCGAAUUCUGCUGCAUAUCUC [A35G C39U A56G U74C] | 1.3
